Here are results for 40 compounds from the antibiotic and cytotoxicity screens of Wong et al. (2023).

This is one part of the list.

In one experiment the test system is HSkMC (human skeletal muscle cells). The experiment can be described thus: cytotoxicity call (relative viability < 0.9). To be noted: 10 µM.
Take `C[C@@H]1CN([C@H](C)CO)C(=O)c2cc(NS(C)(=O)=O)ccc2O[C@@H]1CN(C)C(=O)Nc1ccc2c(c1)OCO2`: the cytotoxicity call is “inactive”.

With `C[C@@H]1CN([C@@H](C)CO)C(=O)c2cc(NS(=O)(=O)c3ccccc3)ccc2O[C@@H](C)CCCCO[C@H]1CN(C)S(=O)(=O)c1cn(C)cn1`, the cytotoxicity call is “inactive”.

For the compound `COc1ccc(C#Cc2ccc3c(c2)[C@]2(C(=O)N3)[C@H](C(=O)O)[C@H]3C(=O)O[C@H](c4ccccc4)[C@H](c4ccccc4)N3[C@@H]2c2ccccc2OCCO)cc1`, the cytotoxicity call is “inactive”.

With `C[C@H]1CN([C@@H](C)CO)C(=O)c2cc(Br)cnc2O[C@H]1CN(C)C(=O)Nc1ccc(F)cc1`, the cytotoxicity call is “inactive”.

Turning to `COc1ccc(S(=O)(=O)N(C)C[C@H]2OCCCC[C@H](C)Oc3ccc(NC(=O)Nc4ccc(C(F)(F)F)cc4)cc3C(=O)N([C@H](C)CO)C[C@@H]2C)cc1`, the cytotoxicity call is “inactive”.

As for `C[C@@H]1CCCCO[C@@H](CN(C)C(=O)c2ccncc2)[C@H](C)CN([C@H](C)CO)C(=O)c2cc(NS(=O)(=O)c3cn(C)cn3)ccc2O1`, the cytotoxicity call was “inactive”.

Take `CC(C)(CO)[C@@H](O)C(=O)NCCC(=O)NCCSSCCNC(=O)CCNC(=O)[C@H](O)C(C)(C)CO`: the cytotoxicity call was “inactive”.

For `CO[C@@H]1CN(C)C(=O)c2ccc(NS(=O)(=O)c3cn(C)cn3)cc2OC[C@@H](C)N(CCC(F)(F)F)C[C@H]1C`, the cytotoxicity call is “inactive”.

As for `O=C([C@H]1CCCO1)N1CCNCC1`, the cytotoxicity call was “inactive”.

For `C[C@H](CO)N1C[C@H](C)[C@H](CN(C)Cc2ccncc2)Oc2c(NC(=O)C3CCOCC3)cccc2C1=O`, the cytotoxicity call is “inactive”.

Take `Cc1noc(C)c1S(=O)(=O)Nc1ccc2c(c1)C(=O)N([C@H](C)CO)C[C@H](C)[C@@H](CN(C)Cc1ccccc1)O2`: the cytotoxicity call was “inactive”.

As for `Cc1[nH]c(=O)[nH]c(=O)c1S(=O)(=O)N1CCN(c2ccccc2)CC1`, the cytotoxicity call is “inactive”.

In the case of `C[C@@H]1CN([C@H](C)CO)C(=O)c2cc(NC(=O)CCCCCC(=O)Nc3ccccc3N)ccc2O[C@@H](C)CCCCO[C@@H]1CN(C)C(=O)C1CCCCC1`, the cytotoxicity call was “inactive”.

For the compound `O=C(C[C@H]1CC[C@H]2[C@@H](COC[C@@H](O)CN2S(=O)(=O)c2cccc(Cl)c2)O1)NCc1ccc2c(c1)OCO2`, the cytotoxicity call is “inactive”.

For the compound `CO[C@@H]1CN(C)C(=O)c2cc(NC(=O)C3CCOCC3)ccc2OC[C@H](C)N(Cc2cccnc2)C[C@@H]1C`, the cytotoxicity call is “inactive”.

In the case of `O=C1NCC(=O)N2[C@@H]1C[C@@H](C(=O)O)[C@H]2c1ccc(O)cc1`, the cytotoxicity call was “inactive”.

Consider `N#C[C@H](c1ccccn1)N1CCOCC1`, for which the cytotoxicity call is “inactive”.

Another experiment deals with HepG2. Kind of experiment: cytotoxicity call (relative viability < 0.9). To be noted: 10 µM.
Turning to `O=C1c2ccccc2[C@](Cc2ccccc2I)(C(=O)NCC(F)(F)F)[C@H](c2ccc(CO)cc2)N1C1CCCCC1`, the cytotoxicity call is “inactive”.

For the compound `COc1cc([C@@H](O)CO)ccc1OS(=O)(=O)O`, the cytotoxicity call was “inactive”.

For `CCCNC(=O)N(C)C[C@@H]1Oc2cc(C#Cc3cccc(F)c3)ccc2S(=O)(=O)N([C@@H](C)CO)C[C@H]1C`, the cytotoxicity call was “inactive”.

In the case of `COc1ccc(S(=O)(=O)Nc2ccc3c(c2)C(=O)N([C@@H](C)CO)C[C@H](C)[C@@H](CN(C)S(C)(=O)=O)O3)cc1`, the cytotoxicity call is “inactive”.

`CCC(=O)N1C[C@]2(C1)CN([C@@H](CO)c1c2c2ccc(cc2n1C)OC)S(=O)(=O)C`: the cytotoxicity call is “inactive”.

Take `CC(C)NC(=O)Nc1ccc2c(c1)CC(=O)N([C@H](C)CO)C[C@H](C)[C@@H](CN(C)Cc1ccc(C(=O)O)cc1)O2`: the cytotoxicity call is “inactive”.

On to `CC(C)NC(=O)N(C)C[C@@H]1Oc2ccc(NS(=O)(=O)c3ccccc3)cc2CC(=O)N([C@H](C)CO)C[C@@H]1C`, for which the cytotoxicity call was “inactive”.

With `CCCC#Cc1cnc2c(c1)C(=O)N([C@H](C)CO)C[C@@H](C)[C@H](CN(C)C(=O)c1ccc3c(c1)OCO3)O2`, the cytotoxicity call was “inactive”.

`COc1ccc(S(=O)(=O)N(C)C[C@@H]2OCCCC[C@@H](C)Oc3ccc(NS(C)(=O)=O)cc3C(=O)N([C@H](C)CO)C[C@@H]2C)cc1`: the cytotoxicity call is “inactive”.

In the case of `COc1ccc(CN(C)C[C@H]2OCCCC[C@@H](C)Oc3ccc(NC(=O)NC(C)C)cc3C(=O)N([C@@H](C)CO)C[C@@H]2C)cc1`, the cytotoxicity call is “inactive”.

`C[C@@H]1CN([C@@H](C)CO)C(=O)Cc2cc(NC(=O)Nc3ccccc3)ccc2O[C@@H]1CN(C)Cc1ccc(-c2ccccc2)cc1`: the cytotoxicity call was “inactive”.

For `C[C@H]1CN([C@H]2C[C@@H](O)[C@@H](CO)O2)C(=O)NC1=O`, the cytotoxicity call is “inactive”.

On to `Cc1noc(C)c1S(=O)(=O)Nc1ccc2c(c1)C(=O)N([C@H](C)CO)C[C@@H](C)[C@H](CN(C)S(=O)(=O)c1ccc(F)cc1)O2`, for which the cytotoxicity call is “inactive”.

For `C[C@H](CO)N1C[C@H](C)[C@H](CN(C)S(C)(=O)=O)Oc2ncc(C#Cc3cccnc3)cc2C1=O`, the cytotoxicity call is “inactive”.

For `C[C@@H]1CCCCO[C@H](CN(C)Cc2ccc(Cl)c(Cl)c2)[C@@H](C)CN([C@@H](C)CO)C(=O)c2cc(NC(=O)Nc3ccc4c(c3)OCO4)ccc2O1`, the cytotoxicity call was “inactive”.

As to `Cc1ccc(S[C@]2(C(=O)NC3CC3)CC(=O)N(Cc3cc(C(F)(F)F)cc(C(F)(F)F)c3)[C@@H]2c2ccc(CO)cc2I)cc1`, the cytotoxicity call was “inactive”.

Turning to `Cc1noc(C)c1S(=O)(=O)N(C)C[C@@H]1Oc2ccc(NC(=O)Nc3ccccc3)cc2CC(=O)N([C@@H](C)CO)C[C@@H]1C`, the cytotoxicity call is “inactive”.

`C[C@H]1COC(=O)[C@@H](CC(=O)OC(C)(C)C)CC=CC[C@@H](CC(=O)N[C@@H](CO)Cc2ccccc2)C(=O)N1`: the cytotoxicity call was “inactive”.

For `Cc1ccc(S[C@]2(C(=O)NC(C)C)CC(=O)N(C3CCCCC3)[C@@H]2c2ccc(CO)cc2I)cc1`, the cytotoxicity call was “inactive”.

Turning to `C[C@@H]1CN([C@@H](C)CO)C(=O)Cc2cc(NC(=O)C3CC3)ccc2O[C@H]1CN(C)S(=O)(=O)c1ccccc1`, the cytotoxicity call was “inactive”.

Turning to `CC(=O)OC1CC2CCC1(C)C2(C)C` (configuration not stated), the cytotoxicity call is “inactive”.

In the case of `CCN(CC)C(=O)[C@@H]1C[C@@H](N)CN1S(=O)(=O)N1CCCCCC1`, the cytotoxicity call was “inactive”.

Take `COc1ccc2c(c1)OC1COc3cc(OC)c(OC)cc3C1C2=O` (configuration not stated): the cytotoxicity call was “active”.

Turning to `C[C@@H]1CN([C@H](C)CO)C(=O)c2cc(NS(C)(=O)=O)ccc2O[C@@H]1CN(C)C(=O)Nc1ccc2c(c1)OCO2`, the cytotoxicity call was “inactive”.

Take `C[C@@H]1CN([C@@H](C)CO)C(=O)c2cc(NS(=O)(=O)c3ccccc3)ccc2O[C@@H](C)CCCCO[C@H]1CN(C)S(=O)(=O)c1cn(C)cn1`: the cytotoxicity call is “inactive”.

`COc1ccc(C#Cc2ccc3c(c2)[C@]2(C(=O)N3)[C@H](C(=O)O)[C@H]3C(=O)O[C@H](c4ccccc4)[C@H](c4ccccc4)N3[C@@H]2c2ccccc2OCCO)cc1`: the cytotoxicity call is “inactive”.

As for `C[C@H]1CN([C@@H](C)CO)C(=O)c2cc(Br)cnc2O[C@H]1CN(C)C(=O)Nc1ccc(F)cc1`, the cytotoxicity call was “inactive”.

As to `COc1ccc(S(=O)(=O)N(C)C[C@H]2OCCCC[C@H](C)Oc3ccc(NC(=O)Nc4ccc(C(F)(F)F)cc4)cc3C(=O)N([C@H](C)CO)C[C@@H]2C)cc1`, the cytotoxicity call is “active”.

`C[C@@H]1CCCCO[C@@H](CN(C)C(=O)c2ccncc2)[C@H](C)CN([C@H](C)CO)C(=O)c2cc(NS(=O)(=O)c3cn(C)cn3)ccc2O1`: the cytotoxicity call was “inactive”.

`CC(C)(CO)[C@@H](O)C(=O)NCCC(=O)NCCSSCCNC(=O)CCNC(=O)[C@H](O)C(C)(C)CO`: the cytotoxicity call is “inactive”.

Turning to `CO[C@@H]1CN(C)C(=O)c2ccc(NS(=O)(=O)c3cn(C)cn3)cc2OC[C@@H](C)N(CCC(F)(F)F)C[C@H]1C`, the cytotoxicity call is “inactive”.

In the case of `O=C([C@H]1CCCO1)N1CCNCC1`, the cytotoxicity call is “inactive”.

As to `C[C@H](CO)N1C[C@H](C)[C@H](CN(C)Cc2ccncc2)Oc2c(NC(=O)C3CCOCC3)cccc2C1=O`, the cytotoxicity call is “inactive”.

With `Cc1noc(C)c1S(=O)(=O)Nc1ccc2c(c1)C(=O)N([C@H](C)CO)C[C@H](C)[C@@H](CN(C)Cc1ccccc1)O2`, the cytotoxicity call was “inactive”.

With `Cc1[nH]c(=O)[nH]c(=O)c1S(=O)(=O)N1CCN(c2ccccc2)CC1`, the cytotoxicity call is “inactive”.

Regarding `C[C@@H]1CN([C@H](C)CO)C(=O)c2cc(NC(=O)CCCCCC(=O)Nc3ccccc3N)ccc2O[C@@H](C)CCCCO[C@@H]1CN(C)C(=O)C1CCCCC1`, the cytotoxicity call was “inactive”.

Turning to `O=C(C[C@H]1CC[C@H]2[C@@H](COC[C@@H](O)CN2S(=O)(=O)c2cccc(Cl)c2)O1)NCc1ccc2c(c1)OCO2`, the cytotoxicity call is “inactive”.

Consider `CO[C@@H]1CN(C)C(=O)c2cc(NC(=O)C3CCOCC3)ccc2OC[C@H](C)N(Cc2cccnc2)C[C@@H]1C`, for which the cytotoxicity call is “inactive”.

Turning to `O=C1NCC(=O)N2[C@@H]1C[C@@H](C(=O)O)[C@H]2c1ccc(O)cc1`, the cytotoxicity call was “inactive”.

On to `N#C[C@H](c1ccccn1)N1CCOCC1`, for which the cytotoxicity call is “inactive”.
